{
  "source": "paper PMC4336329",
  "about": "(PLoS ONE, 2015)",
  "note": "Among all 310,000 compounds or so, about 14,000 (4.5%) showed an effect of 50% or more. Effects have a minus sign here. This is one part of the list.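 Further: peak tail current of the secondary pulse compared with the same well before compound.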",
  "data": [
    {"target": "human ether-à-go-go-related gene (hERG) potassium channel (human, UniProt Q12809)", "sequence (Q12809 whole entry, looked up)": "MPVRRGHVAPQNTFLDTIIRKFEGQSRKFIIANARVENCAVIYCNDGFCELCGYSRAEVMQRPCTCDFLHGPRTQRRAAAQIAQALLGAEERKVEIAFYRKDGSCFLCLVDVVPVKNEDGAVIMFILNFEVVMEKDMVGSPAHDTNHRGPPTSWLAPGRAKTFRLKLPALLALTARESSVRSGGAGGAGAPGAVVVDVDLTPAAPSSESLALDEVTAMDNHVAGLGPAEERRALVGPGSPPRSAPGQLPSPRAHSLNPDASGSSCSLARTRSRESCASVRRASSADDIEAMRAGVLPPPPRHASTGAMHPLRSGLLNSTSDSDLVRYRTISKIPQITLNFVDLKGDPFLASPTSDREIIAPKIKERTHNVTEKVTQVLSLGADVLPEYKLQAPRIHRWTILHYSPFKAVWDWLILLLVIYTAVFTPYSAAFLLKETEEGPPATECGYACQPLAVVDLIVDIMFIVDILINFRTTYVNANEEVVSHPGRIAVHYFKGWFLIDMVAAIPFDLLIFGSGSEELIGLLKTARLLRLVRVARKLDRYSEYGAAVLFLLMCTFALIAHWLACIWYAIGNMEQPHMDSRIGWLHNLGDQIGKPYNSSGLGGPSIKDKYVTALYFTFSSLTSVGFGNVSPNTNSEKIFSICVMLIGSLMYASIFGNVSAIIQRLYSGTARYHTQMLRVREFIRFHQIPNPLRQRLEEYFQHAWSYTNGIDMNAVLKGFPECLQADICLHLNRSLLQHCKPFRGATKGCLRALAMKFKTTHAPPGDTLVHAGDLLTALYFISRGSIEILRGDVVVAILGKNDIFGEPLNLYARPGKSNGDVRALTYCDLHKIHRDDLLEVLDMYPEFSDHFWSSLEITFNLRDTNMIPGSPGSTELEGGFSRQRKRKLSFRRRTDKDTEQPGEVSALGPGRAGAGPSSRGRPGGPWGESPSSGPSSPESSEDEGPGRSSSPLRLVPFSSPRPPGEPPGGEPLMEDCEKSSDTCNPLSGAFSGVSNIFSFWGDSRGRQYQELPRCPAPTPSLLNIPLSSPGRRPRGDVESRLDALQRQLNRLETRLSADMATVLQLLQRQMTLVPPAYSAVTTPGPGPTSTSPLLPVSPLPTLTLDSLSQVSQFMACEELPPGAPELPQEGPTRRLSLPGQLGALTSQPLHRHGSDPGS", "assay": "primary screen, population patch clamp on CHO cells stably expressing hERG", "units": {"hERG current change (%, negative = inhibition) at 10uM": "%"}, "values": [
      {"smiles": "COCCCN1C(=O)C(=O)/C(=C(/O)c2ccc(OCC(C)C)cc2C)C1c1cccnc1", "note": "(centres unmarked)", "hERG current change (%, negative = inhibition) at 10uM": -13.4},
      {"smiles": "COc1ccc(CNc2nc(-c3ccccc3)nn2C(=O)c2cccs2)cc1", "hERG current change (%, negative = inhibition) at 10uM": -0.215},
      {"smiles": "CC1(C)CC(=O)C(C(C2=C(O)CC(C)(C)CC2=O)c2ccco2)C(=O)C1", "note": "(centres unmarked)", "hERG current change (%, negative = inhibition) at 10uM": 8.79},
      {"smiles": "Cc1ccc(CNc2nc(N)c([N+](=O)[O-])c(NCc3ccccc3)n2)cc1", "hERG current change (%, negative = inhibition) at 10uM": 12},
      {"smiles": "Cc1oc2nc(SCCCC(=O)NCCCO)nc(N)c2c1C", "hERG current change (%, negative = inhibition) at 10uM": 9.44},
      {"smiles": "CCc1nnc(NS(=O)(=O)c2ccc(NC(=O)CCC(=O)O)cc2)s1", "hERG current change (%, negative = inhibition) at 10uM": 20.8},
      {"smiles": "Cc1ccc(S(=O)(=O)C2(C(=O)N3CCN(c4ccccc4F)CC3)CC2)cc1", "hERG current change (%, negative = inhibition) at 10uM": -2.52},
      {"smiles": "CCC(C)[C@H](NC(=O)N1CC(=O)Nc2ccccc21)C(=O)N[C@@H](C(=O)O)c1ccccc1", "note": "(some centres unmarked)", "hERG current change (%, negative = inhibition) at 10uM": 18},
      {"smiles": "C[C@]12C=CC(=O)C=C1CC[C@H]1[C@@H]3C[C@@H](O)[C@](O)(C(=O)CO)[C@@]3(C)C[C@H](O)[C@@]12F", "hERG current change (%, negative = inhibition) at 10uM": 6.23},
      {"smiles": "Cc1ccc(NS(=O)(=O)c2cccc(C(=O)NCC(c3ccco3)N3CCCC3)c2)cc1", "note": "(centres unmarked)", "hERG current change (%, negative = inhibition) at 10uM": -47.4},
      {"smiles": "Oc1ccccc1N1CCN(C(=S)Nc2ccc(SC(F)F)cc2)CC1", "hERG current change (%, negative = inhibition) at 10uM": 14.9},
      {"smiles": "Cc1ccc2c(c1)C(=O)N(CCCCO)C2=O", "hERG current change (%, negative = inhibition) at 10uM": 20.1},
      {"smiles": "Cn1c(N)c(Sc2ccc(F)cc2)c(=O)n(C)c1=O", "hERG current change (%, negative = inhibition) at 10uM": 11.4},
      {"smiles": "Cc1cc(NC(=O)CSc2nc(=O)cc(N)n2-c2ccc(Cl)cc2)no1", "hERG current change (%, negative = inhibition) at 10uM": 6.98},
      {"smiles": "Cc1ccc2c(c1)[C@H]1OCC[C@H]1[C@@H](c1ccncc1)N2", "hERG current change (%, negative = inhibition) at 10uM": 10.2},
      {"smiles": "NC(=O)c1ccc(-n2nnnc2SCC(=O)NC2CCCCC2)cc1", "hERG current change (%, negative = inhibition) at 10uM": 4.36},
      {"smiles": "O=c1c2ccccc2ncn1-c1ccccc1[N+](=O)[O-]", "hERG current change (%, negative = inhibition) at 10uM": 11.9},
      {"smiles": "CCOc1ccc(NC(=O)C2CCN(S(=O)(=O)c3cccnc3)CC2)cc1", "hERG current change (%, negative = inhibition) at 10uM": -4.14},
      {"smiles": "CC(=O)N1CCc2cc(S(=O)(=O)NC(C(=O)Nc3ccc4c(c3)OCCO4)C(C)C)ccc21", "note": "(centres unmarked)", "hERG current change (%, negative = inhibition) at 10uM": 16.5},
      {"smiles": "CCCCCN(C(=O)NC(=O)NC(C)CC)S(C)(=O)=O", "note": "(centres unmarked)", "hERG current change (%, negative = inhibition) at 10uM": 9.23},
      {"smiles": "O=C(Nc1nc(-c2ccccn2)cs1)c1ncc(Cl)c(Cl)c1Cl", "hERG current change (%, negative = inhibition) at 10uM": -6.08},
      {"smiles": "CC(C)N(Cc1nc(-c2ccc(Cl)cc2)no1)Cc1nccn1C", "hERG current change (%, negative = inhibition) at 10uM": -50.4},
      {"smiles": "Cc1nn(C)cc1S(=O)(=O)NCc1ccc2c(c1)OCO2", "hERG current change (%, negative = inhibition) at 10uM": 12.5},
      {"smiles": "COc1ccccc1NC(=O)Cn1c(=O)n2nc(C)nc2c2ccccc21", "hERG current change (%, negative = inhibition) at 10uM": 8.7},
      {"smiles": "CS(=O)(=O)N(CC(=O)Nc1ccccc1C(=O)NCc1ccco1)c1ccc2c(c1)OCCO2", "hERG current change (%, negative = inhibition) at 10uM": -5.03},
      {"smiles": "CN(C)CCCN(C(=O)COc1ccc(Cl)cc1)c1nc2ccc(F)cc2s1.Cl", "hERG current change (%, negative = inhibition) at 10uM": -21.4},
      {"smiles": "CCN(CC)C(=O)c1cc(-c2ccc3c(c2)OCO3)on1", "hERG current change (%, negative = inhibition) at 10uM": 10.8},
      {"smiles": "Cc1csc(SCC(=O)NCc2cccs2)n1", "hERG current change (%, negative = inhibition) at 10uM": 3.97},
      {"smiles": "Cc1cc(N2CCCN(C)CC2)nc2cc(Cl)ccc12", "hERG current change (%, negative = inhibition) at 10uM": -61.7},
      {"smiles": "Brc1ccc(C2Nc3cccc4cccc(c34)N2)s1", "hERG current change (%, negative = inhibition) at 10uM": 7.9},
      {"smiles": "CC1CC(C)CN(S(=O)(=O)CCNC(=O)c2ccccc2)C1", "note": "(centres unmarked)", "hERG current change (%, negative = inhibition) at 10uM": -0.0469},
      {"smiles": "Cc1ccc2c(c1)N(Cc1cccc(Cl)c1)C(=O)c1cccnc1O2", "hERG current change (%, negative = inhibition) at 10uM": -14.3},
      {"smiles": "O=C(CSc1nc2ncc(Cl)cc2[nH]1)Nc1cccc(F)c1", "hERG current change (%, negative = inhibition) at 10uM": 12.8},
      {"smiles": "CCOc1cc(C2CC(=O)N3CN(C4CCCCC4)CSC3=C2C#N)ccc1O", "note": "(centres unmarked)", "hERG current change (%, negative = inhibition) at 10uM": -14.4},
      {"smiles": "O=C(Nc1ccc(N2CCOCC2)nc1)c1ccc(F)cc1", "hERG current change (%, negative = inhibition) at 10uM": -8.42},
      {"smiles": "CCCCCCSc1cccc(-c2nc3ccc(Cl)cn3c2NCc2ccccc2)c1.O=C(O)C(F)(F)F", "hERG current change (%, negative = inhibition) at 10uM": 8.84},
      {"smiles": "N#C/C(=C\\c1cccc([N+](=O)[O-])c1)c1ccccn1", "hERG current change (%, negative = inhibition) at 10uM": -16},
      {"smiles": "Cc1ccc(OCC(=O)NC(C)c2ccccc2)cc1", "note": "(centres unmarked)", "hERG current change (%, negative = inhibition) at 10uM": -1.19},
      {"smiles": "O=S(=O)(c1ccc(C2CCCCC2)cc1)N1CCCC1", "hERG current change (%, negative = inhibition) at 10uM": 22.2},
      {"smiles": "CCc1ccc(N2C(=O)C3C4C=CC(CC4)C3C2=O)cc1", "note": "(centres unmarked)", "hERG current change (%, negative = inhibition) at 10uM": 14.6},
      {"smiles": "Cc1ccc2c(c1)nnn2C1CCN(S(=O)(=O)c2ccc(C(=O)NC3CCCC3)cc2)CC1", "hERG current change (%, negative = inhibition) at 10uM": 15.9},
      {"smiles": "COc1ccc(Cl)cc1N1C(=O)C2CCCN2C1c1cccc(F)c1", "note": "(centres unmarked)", "hERG current change (%, negative = inhibition) at 10uM": -12.6},
      {"smiles": "CCn1nnnc1SCC(=O)N1CCCc2ccccc21", "hERG current change (%, negative = inhibition) at 10uM": -3.75},
      {"smiles": "NC(=O)NC(Cc1ccccc1)C(=O)N1CCN(S(=O)(=O)c2ccc(Cl)cc2)CC1", "note": "(centres unmarked)", "hERG current change (%, negative = inhibition) at 10uM": -5.91}
    ]}
  ]
}
